# Some of the results follow. One pool of 16,384 single-stranded DNAs met each Rep nickase domain in vitro for 1 h at 37 °C with 3 µM enzyme; only the middle of the 90-letter strands is printed. A value is the log2 ratio of uncut reads to the pool without enzyme; uncut sequences lie near 0, cut ones below; no hit call is given. Shares of all reads are compared, so uncut sequences can rise above 0 when many others are cut.
# Tests used:
# Assay in all cases: uncleaved DNA left, log2 of reads against the no-enzyme library (log2 ratio); higher = less cleavage (more negative = more Rep cleavage of the k-mer); sequences stand for … in CTCGTCCG…ACCGGAGA
# [1] = system: T1, Rep nickase domain of Muscovy duck circovirus
# T1 sequence (protein, residues 1-111, tag omitted): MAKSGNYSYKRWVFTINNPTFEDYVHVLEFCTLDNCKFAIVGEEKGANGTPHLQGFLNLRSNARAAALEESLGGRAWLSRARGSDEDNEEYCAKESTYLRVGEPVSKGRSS
# Method: (§1)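 A pool of 90-nt single-stranded DNAs with seven random bases just before the constant AC of the nick site (name = the seven bases) was cut by 3 µM recombinant His6-SUMO-tagged Rep nickase domain (300 nM DNA, 50 mM HEPES pH 8.0, 50 mM NaCl, 1 mM MnCl2, 1 h, 37 °C, three replicates). Uncut DNA was amplified and sequenced.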
# [2] = system: T2, Rep nickase domain of banana bunchy top virus
# T2 sequence (protein, residues 1-94, tag omitted): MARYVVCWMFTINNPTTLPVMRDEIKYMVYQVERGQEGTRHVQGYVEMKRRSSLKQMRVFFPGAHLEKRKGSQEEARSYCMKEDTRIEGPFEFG
# Method: as §1
# [3] = system: T3, Rep nickase domain of cabbage leaf curl virus
# T3 sequence (protein, residues 1-116, tag omitted): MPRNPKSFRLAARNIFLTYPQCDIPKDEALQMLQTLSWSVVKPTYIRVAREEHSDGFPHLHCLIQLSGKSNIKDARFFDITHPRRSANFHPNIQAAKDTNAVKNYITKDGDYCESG
# Method: as §1
# [4] = system: T4, Rep nickase domain of chickpea chlorotic dwarf virus
# T4 sequence (protein, residues 1-124, tag omitted): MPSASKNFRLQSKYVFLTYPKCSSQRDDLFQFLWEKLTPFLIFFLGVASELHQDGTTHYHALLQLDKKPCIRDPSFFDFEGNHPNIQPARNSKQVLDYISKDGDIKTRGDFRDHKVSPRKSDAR
# Method: as §1
# [5] = system: T5, Rep nickase domain of faba bean necrotic yellows virus
# T5 sequence (protein, residues 1-98, tag omitted): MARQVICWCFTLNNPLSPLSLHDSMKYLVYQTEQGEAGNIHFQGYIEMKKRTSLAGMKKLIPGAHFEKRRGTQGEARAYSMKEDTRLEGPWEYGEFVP
# Method: as §1
# [6] = system: T6, Rep nickase domain of maize striate mosaic virus
# T6 sequence (protein, residues 1-117, tag omitted): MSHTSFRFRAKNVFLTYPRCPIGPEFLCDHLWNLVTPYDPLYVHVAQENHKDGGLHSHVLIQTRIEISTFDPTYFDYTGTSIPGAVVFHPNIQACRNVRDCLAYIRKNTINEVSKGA
# Method: as §1
# [7] = system: T7, Rep nickase domain of porcine circovirus 2
# T7 sequence (protein, residues 2-116, tag omitted): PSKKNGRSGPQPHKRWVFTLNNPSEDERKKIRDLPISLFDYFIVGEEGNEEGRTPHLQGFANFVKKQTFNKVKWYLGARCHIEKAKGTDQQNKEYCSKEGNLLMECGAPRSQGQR
# Method: as §1
# [8] = system: T8, Rep nickase domain of tomato golden mosaic virus
# T8 sequence (protein, residues 1-124, tag omitted): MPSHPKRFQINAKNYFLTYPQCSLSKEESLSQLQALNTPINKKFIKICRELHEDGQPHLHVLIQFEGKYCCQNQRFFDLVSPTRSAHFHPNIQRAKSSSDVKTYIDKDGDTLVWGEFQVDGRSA
# Method: as §1
# [9] = system: T9, Rep nickase domain of tomato yellow leaf curl virus
# T9 sequence (protein, residues 1-136, tag omitted): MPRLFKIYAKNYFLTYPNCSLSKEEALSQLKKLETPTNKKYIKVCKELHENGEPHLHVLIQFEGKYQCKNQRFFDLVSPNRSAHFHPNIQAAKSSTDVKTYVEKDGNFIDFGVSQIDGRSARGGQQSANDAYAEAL
# Method: as §1
# [10] = system: T10, Rep nickase domain of wheat dwarf virus
# T10 sequence (protein, residues 1-137, tag omitted): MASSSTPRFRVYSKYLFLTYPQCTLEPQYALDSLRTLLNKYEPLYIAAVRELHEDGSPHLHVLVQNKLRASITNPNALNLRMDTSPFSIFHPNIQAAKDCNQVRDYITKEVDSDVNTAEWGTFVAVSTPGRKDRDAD
# Method: as §1
Sequence,uncleaved DNA left (log2) [1],uncleaved DNA left (log2) [2],uncleaved DNA left (log2) [3],uncleaved DNA left (log2) [4],uncleaved DNA left (log2) [5],uncleaved DNA left (log2) [6],uncleaved DNA left (log2) [7],uncleaved DNA left (log2) [8],uncleaved DNA left (log2) [9],uncleaved DNA left (log2) [10]
CAAGGAG,0.0462,-0.0519,-0.0879,0.598,-0.00474,-0.362,0.2,0.0917,-0.0744,-0.0359
GAGCGGT,0.0868,-0.0614,0.0969,0.433,-0.0708,0.754,-0.397,0.0958,0.04,0.0178
TCGTGCG,-0.0301,-0.158,-0.783,0.675,-0.041,-0.271,0.0715,-0.058,-0.0937,-0.0864
CTCAAGT,-0.139,0.00899,0.0697,-0.238,0.01,-0.955,-0.0189,0.0164,-0.0635,0.00321
GTGATGT,0.0338,0.153,0.438,1.12,-0.000461,1.74,0.0283,0.0761,0.0632,0.128
TATTCAG,-0.125,0.0721,-0.693,-0.598,0.0833,-1.24,0.177,-0.00676,0.00258,-0.0971
CGCACTG,-0.158,-0.107,-0.0429,0.519,-0.115,1.58,0.0239,-0.249,-0.0849,0.0887
GGCATAA,-0.0245,0.0313,0.525,1.45,-0.0261,1.8,0.0975,-0.0416,-0.0234,0.185
TAATCCA,-1.37,0.0379,-2.84,-2.58,0.0817,-2.42,-2.09,-2.92,-0.00481,-2.85
CTGTCCA,-0.119,-0.0286,-0.0029,-0.821,-0.0983,-0.366,-0.323,-0.131,-0.0871,-0.0258
AACGGCG,0.0394,0.0893,-0.725,0.509,0.124,-0.458,0.255,0.0994,0.0768,0.0226
CGCTCTA,-0.0786,-0.0425,-0.0832,-0.83,-0.0313,-0.403,-0.173,-0.00759,-0.0346,0.0289
CTGTTCT,-1.31,-0.361,-0.0695,-1.92,-0.278,-0.696,-3.16,-0.251,-0.156,-0.181
AAAGAAG,0.0865,0.121,-0.729,-0.306,0.0791,-1.06,0.429,0.0997,0.0749,0.087
GCGCTAA,-0.0198,0.0425,0.0868,0.442,0.135,0.338,-0.068,0.0393,0.0264,0.0836
GCGGTGT,-0.0772,-0.0725,0.203,0.489,-0.12,0.843,0.0362,-0.149,-0.0598,-0.245
AACCATT,0.0495,0.0332,-0.27,-2.57,0.0694,-0.772,-2.96,0.162,0.0643,0.153
GGCCTGA,0.0308,0.0719,0.265,0.957,0.0202,1.67,0.0683,0.0106,0.0503,0.0467
TTCGGGA,0.0716,-0.0438,0.402,0.51,-0.183,0.66,0.0674,0.0232,0.032,0.00999
GCCCTGT,-0.00811,-0.0788,-0.0123,0.0815,-0.0865,0.111,-0.0669,-0.114,-0.0873,-0.221
TAGGAGG,0.083,0.0659,0.121,0.728,-0.0204,0.219,0.103,0.131,-0.0112,0.0881
CCAGCAT,0.0774,-0.0156,-0.0864,-0.327,-0.000398,-0.586,0.0749,-0.000586,-0.0141,-0.0119
TATAAAA,-0.0249,0.0339,-0.0314,-0.543,0.017,-0.401,0.0711,0.0937,-0.1,0.0726
GGTACGA,0.0679,0.145,0.773,1.84,-0.093,2.07,0.244,0.0683,0.142,0.162
CGTAATA,-0.036,-0.0639,-0.106,-1.12,-0.0942,-0.325,-0.0759,-0.0142,-0.00895,-0.0816
CCCCGAT,0.046,-0.0328,0.142,0.104,-0.0677,0.00373,-0.131,0.111,-0.0783,-0.039
CGAGTGA,0.283,0.114,0.256,0.777,0.263,1.62,0.236,0.103,0.0336,0.248
TCCATCA,-0.0301,0.176,0.32,-0.235,0.0502,-0.268,0.118,0.0863,0.184,0.269
AGCGCGC,0.0531,0.0567,-0.139,0.1,0.00372,-0.0899,0.111,0.000559,-0.0935,0.00625
GTCAGCT,-0.0242,0.0164,0.315,1.12,0.0178,1.17,0.0603,0.0739,0.0158,0.0205

# From the supplement of paper PMC7826260
